# The other results are listed elsewhere or left out.
# Legend:
# Assay in all cases: glycan array binding signal (z-score within array); higher = stronger binding
# Details in all cases: glycan notation: IUPAC condensed, linker removed
# [1] = biological target: Gal(b1-4)GlcNAc(b1-3)Gal(b1-4)GlcNAc(b1-3)Gal(b1-4)GlcNAc(b1-3)Gal(b1-4)GlcNAc(b1-2)Man(a1-3)[Gal(b1-4)GlcNAc(b1-3)Gal(b1-4)GlcNAc(b1-3)Gal(b1-4)GlcNAc(b1-3)Gal(b1-4)GlcNAc(b1-2)Man(a1-6)]Man(b1-4)GlcNAc(b1-4)[Fuc(a1-6)]GlcNAc
# In short: (§1)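 Glycan array data were curated from 3228 arrays in the Consortium for Functional Glycomics database and kept only where the protein sequence was available. Glycan names were converted to IUPAC-condensed notation, and columns mapping to the same glycan were averaged. The binding signal is a within-array Z-score, averaged across arrays of the same protein sequence at different concentrations or buffers and across linkers. Negative Z-scores can be read as non-binding.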
# [2] = biological target: Gal(b1-4)GlcNAc(b1-3)Gal(b1-4)GlcNAc(b1-3)Gal(b1-4)GlcNAc(b1-3)Gal(b1-4)GlcNAc(b1-2)[Gal(b1-4)GlcNAc(b1-3)Gal(b1-4)GlcNAc(b1-3)Gal(b1-4)GlcNAc(b1-3)Gal(b1-4)GlcNAc(b1-6)]Man(a1-6)[Gal(b1-4)GlcNAc(b1-3)Gal(b1-4)GlcNAc(b1-3)Gal(b1-4)GlcNAc(b1-3)Gal(b1-4)GlcNAc(b1-2)Man(a1-3)]Man(b1-4)GlcNAc(b1-4)[Fuc(a1-6)]GlcNAc
# In short: as §1
# [3] = biological target: Gal(b1-4)GlcNAc(b1-3)Gal(b1-4)GlcNAc(b1-3)Gal(b1-4)GlcNAc(b1-3)Gal(b1-4)GlcNAc(b1-3)Gal(b1-4)GlcNAc(b1-2)Man(a1-3)[Gal(b1-4)GlcNAc(b1-3)Gal(b1-4)GlcNAc(b1-3)Gal(b1-4)GlcNAc(b1-3)Gal(b1-4)GlcNAc(b1-3)Gal(b1-4)GlcNAc(b1-2)Man(a1-6)]Man(b1-4)GlcNAc(b1-4)GlcNAc
# In short: as §1
# [4] = biological target: Gal(b1-4)GlcNAc(b1-3)Gal(b1-4)GlcNAc(b1-3)Gal(b1-4)GlcNAc(b1-3)Gal(b1-4)GlcNAc(b1-3)Gal(b1-4)GlcNAc(b1-2)Man(a1-3)[Gal(b1-4)GlcNAc(b1-3)Gal(b1-4)GlcNAc(b1-3)Gal(b1-4)GlcNAc(b1-3)Gal(b1-4)GlcNAc(b1-3)Gal(b1-4)GlcNAc(b1-2)Man(a1-6)]Man(b1-4)GlcNAc(b1-4)[Fuc(a1-6)]GlcNAc
# In short: as §1
# [5] = biological target: Gal(b1-4)GlcNAc(b1-3)Gal(b1-4)GlcNAc(b1-3)Gal(b1-4)GlcNAc(b1-3)Gal(b1-4)GlcNAc(b1-3)Gal(b1-4)GlcNAc(b1-2)[Gal(b1-4)GlcNAc(b1-3)Gal(b1-4)GlcNAc(b1-3)Gal(b1-4)GlcNAc(b1-3)Gal(b1-4)GlcNAc(b1-3)Gal(b1-4)GlcNAc(b1-6)]Man(a1-6)[Gal(b1-4)GlcNAc(b1-3)Gal(b1-4)GlcNAc(b1-3)Gal(b1-4)GlcNAc(b1-3)Gal(b1-4)GlcNAc(b1-3)Gal(b1-4)GlcNAc(b1-2)Man(a1-3)]Man(b1-4)GlcNAc(b1-4)[Fuc(a1-6)]GlcNAc
# In short: as §1
# [6] = biological target: Gal(b1-4)GlcNAc(b1-3)Gal(b1-4)GlcNAc(b1-3)Gal(b1-4)GlcNAc(b1-3)Gal(b1-4)GlcNAc(b1-3)Gal(b1-4)GlcNAc(b1-3)Gal(b1-4)GlcNAc(b1-2)Man(a1-3)[Gal(b1-4)GlcNAc(b1-3)Gal(b1-4)GlcNAc(b1-3)Gal(b1-4)GlcNAc(b1-3)Gal(b1-4)GlcNAc(b1-3)Gal(b1-4)GlcNAc(b1-3)Gal(b1-4)GlcNAc(b1-2)Man(a1-6)]Man(b1-4)GlcNAc(b1-4)GlcNAc
# In short: as §1
# [7] = biological target: Gal(b1-4)GlcNAc(b1-3)Gal(b1-4)GlcNAc(b1-3)GalNAc
# In short: as §1
# [8] = biological target: Gal(b1-4)GlcNAc(b1-3)Gal(b1-4)GlcNAc(b1-3)[Gal(b1-4)GlcNAc(b1-3)Gal(b1-4)GlcNAc(b1-6)]GalNAc
# In short: as §1
# [9] = biological target: Gal(b1-4)GlcNAc(b1-3)Gal(b1-4)GlcNAc(b1-6)[Gal(b1-3)]GalNAc
# In short: as §1
# [10] = biological target: Gal(b1-4)GlcNAc(b1-3)Gal(b1-4)[Fuc(a1-3)]GlcNAc(b1-3)Gal(b1-4)[Fuc(a1-3)]GlcNAc
# In short: as §1
# [11] = biological target: Gal(b1-4)GlcNAc(b1-3)GalNAc
# In short: as §1
# [12] = biological target: Gal(b1-4)GlcNAc(b1-3)[Fuc(a1-3)GlcNAc(b1-6)]Gal(b1-4)Glc
# In short: as §1
# [13] = biological target: Gal(b1-4)GlcNAc(b1-3)[Gal(b1-4)GlcNAc(b1-6)]Gal(b1-4)GlcNAc
# In short: as §1
# [14] = biological target: Gal(b1-4)GlcNAc(b1-3)[GlcNAc(b1-6)]Gal(b1-4)GlcNAc
# In short: as §1
# [15] = biological target: Gal(b1-4)GlcNAc(b1-6)Gal(b1-4)GlcNAc
# In short: as §1
# [16] = biological target: Gal(b1-4)GlcNAc(b1-6)GalNAc
# In short: as §1
# [17] = biological target: Gal(b1-4)GlcNAc(b1-6)[Gal(b1-3)]GalNAc
# In short: as §1
# [18] = biological target: Gal(b1-4)GlcNAc(b1-6)[Gal(b1-4)GlcNAc(b1-3)]GalNAc
# In short: as §1
# [19] = biological target: Gal(b1-4)GlcNAc6P
# In short: as §1
# [20] = biological target: Gal(b1-6)Gal
# In short: as §1
# [21] = biological target: Gal3S(b1-3)GalNAc
# In short: as §1
# [22] = biological target: Gal3S(b1-3)GlcNAc
# In short: as §1
# [23] = biological target: Gal3S(b1-3)[Fuc(a1-4)]GlcNAc
# In short: as §1
# [24] = biological target: Gal3S(b1-4)Glc
# In short: as §1
# [25] = biological target: Gal3S(b1-4)Glc6S
# In short: as §1
# [26] = biological target: Gal3S(b1-4)GlcNAc
# In short: as §1
# [27] = biological target: Gal3S(b1-4)[Fuc(a1-3)]Glc6S
# In short: as §1
# [28] = biological target: Gal3S(b1-4)[Fuc(a1-3)]GlcNAc
# In short: as §1
# [29] = biological target: Gal3S(b1-4)[Fuc(a1-3)]GlcNAc6S
# In short: as §1
# [30] = biological target: Gal3S4S(b1-4)GlcNAc
# In short: as §1
# [31] = biological target: Gal3S6S(b1-4)GlcNAc
# In short: as §1
# [32] = biological target: Gal3S6S(b1-4)GlcNAc6S
# In short: as §1
# [33] = biological target: Gal4S(b1-4)GlcNAc
# In short: as §1
# [34] = biological target: Gal4S6S(b1-4)GlcNAc
# In short: as §1
# [35] = biological target: Gal6P(b1-4)GlcNAc
# In short: as §1
# [36] = biological target: Gal6S(b1-3)GlcNAc
# In short: as §1
# [37] = biological target: Gal6S(b1-3)GlcNAc6S
# In short: as §1
# [38] = biological target: Gal6S(b1-4)Glc
# In short: as §1
binder,measurement,setting,value
PX9961T-pdi-555-33-555 (Parabacteroides distasonis) (protein) FDEETAFQSPTLVYVNTVASLYNNMFKIMGNDRHVYDLNTFSSDEAMLPCRIGDWEDGGLWQNIFLHRWGTMNDLTKNSWDFLYEQIGKCNQSVDKLQAFAEEQPDVEYFKVYLEEVRAVRAFFYYELLDLFARVPLVTSSTTPMSEVKQSERSVVFNFVRSELEEALPYLSDNRSNQKGEYYGRITKPVAYMILAKLALNAEVYADDNWTDGNRPAGKNIKFTVDGKEMNAWEATIAYVDKLEALGYKLQGNFSENFAVANETSVENIFTVPMDPVAYPDAKDYNLVRTRHYDHATAYGQSGWNGSCATVKAMNVFKFGTADEDPRCKLTYFTGEVTGPDGKTIYTEWDGQKVPLKYEPNAPKVYMDASDGLLVKTAGARMAKYEFDQNAQDGGNLHGNDCVIFRFADALLMKAEAKIRLGQNGDDEVNQVRNRVGAKPLQNVTLDTLLDERMLELAWEGVRRQDLIRFGKFTEATVDRYVGVKHFASSLDYQEDKTGYTTVFSIYADILSLNPNLTQNPGY,glycan array binding signal (z-score),[1],0.109
same,glycan array binding signal (z-score),[2],-0.108
same,glycan array binding signal (z-score),[3],0.135
same,glycan array binding signal (z-score),[4],-0.259
same,glycan array binding signal (z-score),[5],0.047
same,glycan array binding signal (z-score),[6],-0.44
same,glycan array binding signal (z-score),[7],0.322
same,glycan array binding signal (z-score),[8],0.263
same,glycan array binding signal (z-score),[9],-0.032
same,glycan array binding signal (z-score),[10],-0.637
same,glycan array binding signal (z-score),[11],-0.356
same,glycan array binding signal (z-score),[12],0.001
same,glycan array binding signal (z-score),[13],-0.204
same,glycan array binding signal (z-score),[14],-0.222
same,glycan array binding signal (z-score),[15],-0.249
same,glycan array binding signal (z-score),[16],-0.746
same,glycan array binding signal (z-score),[17],-0.234
same,glycan array binding signal (z-score),[18],0.248
same,glycan array binding signal (z-score),[19],-0.433
same,glycan array binding signal (z-score),[20],-0.456
same,glycan array binding signal (z-score),[21],0.125
same,glycan array binding signal (z-score),[22],0.012
same,glycan array binding signal (z-score),[23],-0.33
same,glycan array binding signal (z-score),[24],-0.108
same,glycan array binding signal (z-score),[25],0.164
same,glycan array binding signal (z-score),[26],0.365
same,glycan array binding signal (z-score),[27],0.593
same,glycan array binding signal (z-score),[28],0.902
same,glycan array binding signal (z-score),[29],0.154
same,glycan array binding signal (z-score),[30],-0.89
same,glycan array binding signal (z-score),[31],0.349
same,glycan array binding signal (z-score),[32],-0.33
same,glycan array binding signal (z-score),[33],-0.13
same,glycan array binding signal (z-score),[34],0.324
same,glycan array binding signal (z-score),[35],0.026
same,glycan array binding signal (z-score),[36],-0.657
same,glycan array binding signal (z-score),[37],0.629
same,glycan array binding signal (z-score),[38],0.13
